In paper PMC4336329 (PLoS ONE, 2015):
Among all 310,000 compounds or so, about 14,000 (4.5%) showed an effect of 50% or more. Effects have a minus sign here. This is one part of the list.

What follows are compounds tested against human ether-à-go-go-related gene (hERG) potassium channel (human, UniProt Q12809) (assay: primary screen, population patch clamp on CHO cells stably expressing hERG).
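Further: peak tail current of the secondary pulse compared with the same well before compound.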

Sequence of human ether-à-go-go-related gene (hERG) potassium channel (Q12809 whole entry, looked up): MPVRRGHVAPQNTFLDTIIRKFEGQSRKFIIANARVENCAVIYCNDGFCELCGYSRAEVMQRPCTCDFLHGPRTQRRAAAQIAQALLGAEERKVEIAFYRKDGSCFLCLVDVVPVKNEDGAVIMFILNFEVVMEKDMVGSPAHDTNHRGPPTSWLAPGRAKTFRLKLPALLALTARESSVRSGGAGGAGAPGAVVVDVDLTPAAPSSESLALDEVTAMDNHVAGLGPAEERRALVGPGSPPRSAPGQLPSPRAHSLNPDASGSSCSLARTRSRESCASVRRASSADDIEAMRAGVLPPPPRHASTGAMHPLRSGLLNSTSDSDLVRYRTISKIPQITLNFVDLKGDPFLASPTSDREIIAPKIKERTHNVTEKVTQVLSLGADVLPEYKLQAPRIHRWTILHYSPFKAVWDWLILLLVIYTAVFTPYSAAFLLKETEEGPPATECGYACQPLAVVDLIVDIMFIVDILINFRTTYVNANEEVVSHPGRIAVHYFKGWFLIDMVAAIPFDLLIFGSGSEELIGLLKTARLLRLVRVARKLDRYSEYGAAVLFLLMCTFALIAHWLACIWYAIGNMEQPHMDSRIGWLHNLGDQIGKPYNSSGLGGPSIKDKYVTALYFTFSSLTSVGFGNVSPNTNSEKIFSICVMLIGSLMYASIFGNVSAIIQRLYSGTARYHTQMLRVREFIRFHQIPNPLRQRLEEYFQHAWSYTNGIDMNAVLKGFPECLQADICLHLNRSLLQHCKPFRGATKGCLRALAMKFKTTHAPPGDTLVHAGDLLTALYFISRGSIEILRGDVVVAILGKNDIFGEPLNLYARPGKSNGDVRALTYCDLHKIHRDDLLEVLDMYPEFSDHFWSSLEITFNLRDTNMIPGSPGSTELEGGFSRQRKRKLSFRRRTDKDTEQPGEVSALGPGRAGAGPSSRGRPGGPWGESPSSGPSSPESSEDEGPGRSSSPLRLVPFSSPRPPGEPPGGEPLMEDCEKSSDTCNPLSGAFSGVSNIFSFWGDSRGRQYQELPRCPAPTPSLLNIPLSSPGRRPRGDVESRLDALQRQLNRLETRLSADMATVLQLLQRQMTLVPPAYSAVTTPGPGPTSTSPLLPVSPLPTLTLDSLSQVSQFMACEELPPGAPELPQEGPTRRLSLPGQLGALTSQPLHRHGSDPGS

SMILES	hERG current change (%, negative = inhibition) at 10uM
CCn1c(C(=O)Nc2ccsc2C(=O)OC)cc2sc(Cl)cc21	17.8%
CC(Oc1ccc2ccccc2c1)C(=O)NNC(=O)Nc1ccccc1 (stereo not shown)	19%
CC(=O)Nc1cccc(OCCCNS(=O)(=O)c2ccc(F)cc2)c1	-8.22%
O=C(COC(=O)C1CC2CCCC(C1)C2=O)Nc1cccc(F)c1 (stereo not shown)	-16.2%
COc1cc(NC(=O)CSc2nccc(=O)[nH]2)c(C)cc1[N+](=O)[O-]	5.29%
O=C(CC1C(=O)NCCN1C(=O)Nc1ccccc1)Nc1cccc(Cl)c1 (stereo not shown)	-5.5%
O=[N+]([O-])c1c(NCCCO)cc(SCc2ccco2)c2nonc12	-23.9%
CN1/C(=C\C(=O)Nc2ccc(Br)cc2)C(C)(C)c2ccccc21	1.65%
Cc1nc(S/C(=C/c2ccc(-c3cccc(Cl)c3)o2)C(=O)O)n[nH]1	17.6%
COc1ccc(CC(=O)Nc2c3c(nn2C(C)(C)C)CS(=O)(=O)C3)cc1	18.4%
O=C(NCc1ccccn1)c1cccc(NS(=O)(=O)c2cccc(Cl)c2)c1	11.8%
CC(Sc1nnc(-c2cccnc2)o1)C(=O)NC1CCCCC1 (stereo not shown)	14.9%
Cc1cc(Cl)cc(C)c1OCCOCCNCc1ccccc1.O=C(O)C(=O)O	-52.4%
Cc1cc(NC(c2cccnc2)c2c(C)[nH]c3ccccc23)no1 (stereo not shown)	-0.873%
CC(=O)Nc1cccc(-c2csc(Nc3cc(C)ccn3)n2)c1	8.87%
Cl.NNc1nc(-c2ccccc2)cs1	29.7%
O=C(NCC1CCCCC1)c1cc(S(=O)(=O)N2CCCCC2)ccc1Cl	-16.9%
CC(C)c1ccc(N2C(=O)[C@@H]3Cc4ccccc4CN3C2=O)cc1	28.8%
Fc1cccc(/C=N/Nc2ccc3ccccc3n2)c1	5.91%
CCOC(=O)Cn1c(=O)c(C#N)cn(C(C)C)c1=O	9.76%
CCOC(=O)c1cnc2c(C)cc(C)cc2c1Nc1ccc(S(=O)(=O)Nc2ncccn2)cc1	-0.317%
CCOC(=O)C1=NN(c2ccc(C)cc2)CC1C(=O)OC (stereo not shown)	-2.11%
Cc1ccsc1C(=O)NCc1ccccc1Cl	16.9%
Cc1ccnc(NC(=O)CCC(=O)N(CC(=O)NC2CCCCC2)c2cccc(C)c2C)c1	4.89%
Cc1ccc2nc(SCC(=O)Nc3nnc(SCC(N)=O)s3)[nH]c2c1	8.22%
C=Cc1c(C)c2cc3[nH]c(cc4nc(cc5nc(cc1[nH]2)C(C)=C5CCC(=O)[O-])C(CCC(=O)[O-])=C4C)c(C)c3C=C.[Na+]	15.4%
CCC(CC)c1nnc(NC(=O)c2ccc(S(=O)(=O)N3CCc4ccccc4C3)cc2)s1	15.2%
Cc1ccc2nc(SCC(=O)NCc3cccs3)c(C#N)cc2c1	-4.38%

SMILES	hERG current change (%, negative = inhibition) at 10uM
O=P(OCC1CC1)(c1ccccc1)c1ccccc1	8.08%
CCCC(O)(c1ccc(OC)cc1)C(CN(C)C)c1ccccc1 (stereo not shown)	-4.69%
COc1ccc(CN2CCN(C(=O)Cn3ncn4cccc4c3=O)CC2)c(OC)c1OC	-0.055%
COc1cc(NC(=O)c2c(-c3ccccc3Cl)noc2C)c2ncccc2c1	25.5%
COc1cccc(C(=O)N2CCN(C(=O)C3COc4ccccc4O3)CC2)c1 (stereo not shown)	-19.5%
Cc1cc(C)nc(/N=C(\N)Nc2ccc(C)c([N+](=O)[O-])c2)n1	-5.32%
CC(C)N1CCN(Cc2nc(-c3ccccc3)cs2)CC1CCO (stereo not shown)	-47.7%
O=C(NCC1CCCO1)c1ccc(NC(=O)c2cccc([N+](=O)[O-])c2)cc1 (stereo not shown)	3.68%
CCOc1cc(C2NC(=O)NC(C)=C2C(=O)OC(C)CC)cc(Br)c1O (stereo not shown)	-5.51%
COc1ccccc1CC(=O)Nc1cc(C)ccn1	11.2%
COc1ccc(C)cc1S(=O)(=O)NCC(c1ccc2c(c1)OCO2)N1CCN(C)CC1 (stereo not shown)	-68.2%
COc1ccc(CNC(N)=O)cc1OC	0.126%
COc1ccc(/C=N\NS(=O)(=O)c2ccc(Cl)cc2)cc1COc1ccccc1[N+](=O)[O-]	-16.6%
O=C(O)C(=O)O.c1ccc(OCCN2CCN(C(c3ccccc3)c3ccccc3)CC2)cc1	-14.6%
CC(C)Oc1ccc(/C(O)=C2/C(=O)C(=O)N(Cc3cccnc3)C2c2ccco2)cc1 (stereo not shown)	23.5%
Cc1ccc2cc(/C=N/NC(=O)c3ccccc3[N+](=O)[O-])c(Cl)nc2c1	-5.33%
Cl.O=[N+]([O-])c1cccc(C2NCC(c3ccccc3Cl)c3c2[nH]c2ccccc32)c1 (stereo not shown)	18.3%
COc1cccc(CN(C)S(=O)(=O)c2cccs2)c1	-6.47%
Cc1cc(C)c(S(=O)(=O)Nc2ccccc2C(=O)N2CCOCC2)c(C)c1	-22%
Cn1c(SCc2ccc(C#N)cc2)nnc1-c1ccccc1	-29%
CN(C)C(=O)COC(=O)c1ccc(S(=O)(=O)NCc2ccco2)cc1	19.6%
O=C1NCCCC1C(=O)N/N=C/c1cccc([N+](=O)[O-])c1 (stereo not shown)	-0.521%
O=C(O)CC(SCC(=O)Nc1ccc(Br)cc1)C(=O)O (stereo not shown)	28.8%
CCC(C)NCC(=O)Nc1cc(S(=O)(=O)N(CC)c2ccccc2)ccc1Cl (stereo not shown)	-78.8%
CC(OC(=O)CCc1nc2ccccc2c(=O)[nH]1)C(=O)Nc1ncc(Cl)cc1Cl (stereo not shown)	14.2%
CCc1nnc2n1N=C(c1ccc(Cl)cc1Cl)CS2	-10.6%
O=C(O)c1cc([N+](=O)[O-])ccc1NCc1ccccc1	15.6%
